ChEMBL document CHEMBL1201862, “PubChem BioAssay data set” (2004)
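Values below derive from 48-hour exposures of cells grown in 96-well plates, with endpoints linearly interpolated between the two concentrations bracketing the appropriate inhibition level. GI50 marks 50% less growth.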 Activity calls are given as the source filed them. No stated cut-off is given here; in the data, active = GI50 up to about 1.1 µM and inactive = higher.

The compounds below were run on NCI-H322M (assay: growth of human tumour cells (NCI), 48 h).
In the case of `COC1=CC(=O)c2c(c(COC(C)=O)cn2C)C1=O`, the GI50 was active: 0.282 µM.
With `O=C1C(Cl)=C(Nc2ccc(S(=O)(=O)Nc3ccccn3)cc2)C(=O)c2ccccc21` the GI50 was inactive: 18.5 µM.
In the case of `CC(=O)CCNc1ccc(-c2cc(-c3ccc(N(C)C)cc3)nc3ccc4ccccc4c23)cc1`, the GI50 was inactive: > 100 µM.
In the case of `CC(C)NC1(C(N)=O)CCN(Cc2ccccc2)CC1`, the GI50 was inactive: > 100 µM.
In the case of `CN(C)CCCn1c2c3ccccc3ccc2c2oc(=O)c3ccccc3c21`, the GI50 was inactive: 6.7 µM.
For `Cn1c(=O)c2nc(CCNC(=O)c3ccccc3)[nH]c2n(C)c1=O`, the GI50 was inactive: > 100 µM.
With `Cn1c(=O)[nH]c2nncnc2c1=O` the GI50 was inactive: 284 µM.
`Nc1ccc2c3[nH]c4cc(N)ccc4cc-3nc2c1` was tested, and the GI50 was active: 0.333 µM.
`C[N+]1(CCN=C=NC2CCCCC2)CCOCC1` was tested, and the GI50 was inactive: > 100 µM.
For `COC(=O)Cc1cc(OC)c(OC)cc1Br`, the GI50 was inactive: > 100 µM.
In the case of `Cc1c(C(=O)CSc2nc3ccccc3c(=O)n2-c2ccccc2)c(=O)n(-c2ccccc2)n1C`, the GI50 was inactive: 67.6 µM.
In the case of `CC1NC(=O)C2=C1C(N)=NC(=O)C2` (configuration not stated), the GI50 was inactive: > 100 µM.
`COc1ccc(/C=N/N=C(\N)NO)cc1O` was tested, and the GI50 was inactive: 36.3 µM.
With `COc1ccc(OC)c(NC2=NCCO2)c1` the GI50 was inactive: > 100 µM.
For `CCSCC(N)C(=O)O` (configuration not stated), the GI50 was inactive: > 100 µM.
`COc1ccc(C2=Nc3c(nc(SC)[nH]c3=O)NC(c3ccccc3)C2)cc1` (configuration not stated) was tested, and the GI50 was inactive: 39.1 µM.
For `CC(=O)NC1C(OCc2ccccc2)OC(CO)C(O)C1OCC(=O)NC(C)C(=O)NC(CCC(=O)NCCCCCNc1c2ccccc2nc2cccc([N+](=O)[O-])c12)C(N)=O` (configuration not stated), the GI50 was active: < 0.0001 µM.
In the case of `CC1(F)C=CC(=O)C=C1`, the GI50 was inactive: > 100 µM.
For `N#CCCN(CCC#N)c1ccc(/C=C2\N=C(c3ccccc3)N(c3ccccc3)C2=O)cc1`, the GI50 was inactive: > 100 µM.
In the case of `COc1ccc(/C=C(\NC(=O)c2ccccc2)c2nc3ccccc3[nH]2)cc1OC`, the GI50 was inactive: > 100 µM.
In the case of `Cc1cc2c3c(coc3c1-c1c(C)cc3c4c(coc14)C(=O)C(O)=C3C(C)C)C(=O)C(O)=C2C(C)C`, the GI50 was inactive: 5.61 µM.
With `COc1cc2c(cc1OC)-c1cc3ccccc3c[n+]1CC2` the GI50 was inactive: > 100 µM.
For `C=CC[C@@H](N)C(=O)N(C)[C@@H](C)[C@@H](O)c1ccccc1`, the GI50 was inactive: > 100 µM.
With `CCCCOC(=O)CNC(=O)OC/C=C/C#CC#C/C=C/COC(=O)NCC(=O)OCCCC` the GI50 was inactive: > 10 µM.
`CCC(=O)N1C(=S)SC[C@H]1C(=O)OC` was tested, and the GI50 was inactive: > 100 µM.
`COCc1nc(C#N)c(N)o1` was tested, and the GI50 was inactive: > 10 µM.
`Cc1cc(Cl)ccc1C1OC(=O)c2c1ccc1ccccc21` (configuration not stated) was tested, and the GI50 was inactive: > 100 µM.
In the case of `CC(CCCOC(c1ccccc1)(c1ccccc1)c1ccccc1)OC(=O)Nc1ccccc1` (configuration not stated), the GI50 was inactive: 14.5 µM.
With `Cc1cc2c(c(=O)o1)C1=S(SC(c3ccccc3)=C1)S2` (configuration not stated) the GI50 was inactive: 13.9 µM.
`CC(=O)SSC1(Cl)C(C)(C)C(Cl)(SSC(C)=O)C1(C)C` (configuration not stated) was tested, and the GI50 was inactive: > 100 µM.
With `COC(=O)C(Cc1nc2ccccc2nc1O)/C(=N\NC(C)(C)C)C(=O)Nc1c(C)cc(Br)cc1C` (configuration not stated) the GI50 was inactive: 64.6 µM.
`Fc1ccc(Oc2nc3ccccc3nc2-c2ccccc2)cc1` was tested, and the GI50 was inactive: > 100 µM.
With `C1=CC(=P(c2ccccc2)(c2ccccc2)c2ccccc2)C=C1` the GI50 was inactive: 12.1 µM.
With `CCOC(=O)/C(=C\c1ccc(N(CCC#N)CCC#N)cc1C)NC(=O)/C=C/c1ccccc1` the GI50 was inactive: > 100 µM.
In the case of `CCCCOCCOCCOC1=C(Cl)C(=O)c2c(O)ccc(O)c2C1=O`, the GI50 was inactive: 1.65 µM.
For `NS(=O)(=O)c1nnc(NS(=O)(=O)c2ccc([N+](=O)[O-])cc2)s1`, the GI50 was inactive: > 100 µM.
With `O=C(O)c1nc2cc(C(F)(F)F)ccc2[nH]c1=O` the GI50 was inactive: > 100 µM.
In the case of `COC(=O)C1=C(C(=O)OC)C23CC4CCC2(C(=O)C1O3)C4(C)C` (configuration not stated), the GI50 was inactive: > 100 µM.
`O=c1/c(=C/c2c(O)ccc3ccccc23)sc2nc3ccccc3n12` was tested, and the GI50 was inactive: > 100 µM.
With `OC1(c2ccc(Cl)cc2)c2ccc(CN3CCCC3)cc2C2=NCCN21` (configuration not stated) the GI50 was inactive: 13 µM.
For `Cc1ccc2oc(=O)c(-c3ccccc3)nc2c1`, the GI50 was inactive: 29.9 µM.
For `Cc1cc2c(cc1Cl)SC(NNc1cnc3ccccc3n1)=NS2(=O)=O`, the GI50 was inactive: 34 µM.
For `CCCCCOC(=O)C(=O)Nc1[nH]nnc1C(N)=O`, the GI50 was inactive: > 100 µM.
In the case of `COc1cc2c(cc1OC)C1Cc3cc(OC)c(OC)cc3C(C2)O1`, the GI50 was inactive: > 100 µM.
For `C=C(CC[C@@H](C)[C@H]1CC[C@@]2(C)C3=C(CC[C@]12C)[C@@]1(C)CC[C@H](O)[C@@H](C)C1CC3)C(C)C` (some centres not stated), the GI50 was inactive: 1.2 µM.
With `O=C(CNC(c1ccccc1)(c1ccccc1)c1ccccc1)NC1CCCCC1NC(=O)CNC(c1ccccc1)(c1ccccc1)c1ccccc1` (configuration not stated) the GI50 was inactive: > 100 µM.
With `c1ccc(C(=NCCC2CNc3ccccc32)c2ccccc2)cc1` (configuration not stated) the GI50 was inactive: > 100 µM.
`COCOc1ccc(OC)cc1` was tested, and the GI50 was inactive: > 100 µM.
`CC(=O)Nc1ccc(C(=O)NN2C(=O)C(Cl)C2c2ccccc2)cc1` (configuration not stated) was tested, and the GI50 was inactive: > 100 µM.
In the case of `COC(=O)[C@H](C)N1C(=O)N[C@@H](C(C)C)C1=O`, the GI50 was inactive: > 100 µM.
In the case of `Cn1c2ccccc2n2c3ncccc3c(=O)cc12`, the GI50 was inactive: 53.8 µM.
With `COc1ccc(/C=N/N=C(N)N)c(C(=O)O)c1OC` the GI50 was inactive: > 10 µM.
For `COc1c(O)c(OC)c2oc(-c3ccc(O)cc3)c(OC)c(=O)c2c1O`, the GI50 was inactive: 68.7 µM.
With `O=c1c2cn[nH]c2nc2scc(-c3ccc(Cl)cc3)n12` the GI50 was inactive: > 100 µM.
In the case of `CNc1nc2c(C)ccc3nc(N(C)C)[nH]c3c-2n1`, the GI50 was inactive: 51.8 µM.
In the case of `COP(=O)(/C=C/c1cc(C(=O)OCc2ccccc2)n(S(=O)(=O)c2ccccc2)c1)OC`, the GI50 was inactive: > 100 µM.
In the case of `COc1cc(C2SCC(=O)N2c2ccccc2Cl)cc(OC)c1OC` (configuration not stated), the GI50 was inactive: > 100 µM.
With `O=C(O)/C(=C/c1ccccc1[N+](=O)[O-])c1ccccc1` the GI50 was inactive: > 100 µM.
For `COc1ccc(/C=C2\c3cc(OC)c(OC)cc3CCN2C(=O)c2ccccc2)cc1OC`, the GI50 was inactive: > 100 µM.
In the case of `N#CC(C#N)=CNC(=S)Nc1ccc(S(=O)(=O)Nc2nccs2)cc1`, the GI50 was inactive: > 100 µM.
`COc1ccc2[nH]c3c([N+](=O)[O-])ccc(Cl)c3c(=O)c2c1` was tested, and the GI50 was inactive: 33.8 µM.
`N#CC1CC2(C1)OCCS2` (configuration not stated) was tested, and the GI50 was inactive: > 100 µM.
For `COc1ccc(C2=NN(C(=O)c3cccnc3)C(O)(c3cc(F)c(Cl)cc3Cl)C2)cc1OC` (configuration not stated), the GI50 was inactive: 23.8 µM.
In the case of `Cc1ccc(NC(=O)CC(=O)N2N=C(N(C)c3ccccc3)CC2c2ccccc2)cc1` (configuration not stated), the GI50 was inactive: > 100 µM.
`CCN(CC)c1ccc2nc3ccc(/N=N/c4c(O)ccc5ccccc45)cc3[n+](-c3ccccc3)c2c1` was tested, and the GI50 was inactive: > 100 µM.
For `CCSCCC(N)C(=O)O` (configuration not stated), the GI50 was inactive: > 100 µM.
`Clc1cccc(/C=N/C23CC4CC(CC(C4)C2)C3)c1Cl` was tested, and the GI50 was inactive: > 10 µM.
In the case of `CCC(C)(O)c1cn(-c2ccc(S(=O)(=O)O)cc2)nn1` (configuration not stated), the GI50 was inactive: > 100 µM.
For `O=C(O)C(CS)NCc1c2ccccc2nc2ccccc12` (configuration not stated), the GI50 was inactive: 69.5 µM.
In the case of `COc1cc2c(oc(=O)c3cc4ccoc4c(OC)c32)c2cccc(O)c12`, the GI50 was inactive: > 100 µM.
In the case of `CSC1=C(C)S/C(=C\c2ccc(/C=C3\SC(C)=C(SC)S3)cc2)S1`, the GI50 was inactive: > 100 µM.
In the case of `CN(C(=O)C12C3(C(=O)C(C)(C)C)C4C5(C#N)C3C1(C(=O)C(C)(C)C)C5C42C(=O)C(C)(C)C)C(C)(C)C` (configuration not stated), the GI50 was inactive: > 50 µM.
`COc1ccc(C(c2ccccc2)(c2ccc(OC)cc2)N2C(=O)NC3C(CCCCC(=O)NCCCCCCOP(OCCC#N)N(C(C)C)C(C)C)SCC32)cc1` (configuration not stated) was tested, and the GI50 was inactive: 15.8 µM.
`COc1ccc(C[C@@H]2NC[C@@H](O)[C@@H]2OC(C)=O)cc1` was tested, and the GI50 was active: 0.0191 µM.
With `COc1ccc2c(c1)CCN1C3=C(CCC3)C(=O)C[C@@H]21` the GI50 was inactive: > 100 µM.
With `CS(C)(=O)=Nn1c(=O)n2n(c1=O)C1c3ccccc3C2c2ccccc21` the GI50 was inactive: > 100 µM.
With `CC(C)c1cc(OCC(O)CO)cc(C(C)C)c1` (configuration not stated) the GI50 was inactive: > 100 µM.
In the case of `CC(=O)NNC1=NN(C(C)=O)C2(S1)C(=O)Nc1ccccc12` (configuration not stated), the GI50 was inactive: > 100 µM.
For `COCn1c(=O)n(C)c(=O)c2c1nc1c(c(=O)n(C)c(=O)n1COC)[n+]2[O-]`, the GI50 was inactive: 22.3 µM.
In the case of `CCN(CC)Cc1ccc(C(=S)Nc2ccc(Cl)cc2)s1`, the GI50 was inactive: 11.4 µM.
For `Cc1ccc(C2=C(c3ccccc3)C(O)(c3ccc(C)cc3)C(c3ccccc3)=C2c2ccc(C)cc2)cc1`, the GI50 was inactive: > 100 µM.
For `O=c1oc2ccc([N+](=O)[O-])cc2c(Nc2ccc3c(c2)Oc2ccccc2O3)c1[N+](=O)[O-]`, the GI50 was inactive: 29.2 µM.
In the case of `O=C(c1ccco1)N(C(=S)N1CCN(c2ccccc2)CC1)C1CCCCC1`, the GI50 was inactive: > 100 µM.
In the case of `CCOC(=O)Nc1cc2c(c(N)n1)N=C(c1ccc3ccccc3c1)CN2`, the GI50 was active: 0.668 µM.
For `C=CC1(c2ccc(Cl)c(Cl)c2)OCCO1`, the GI50 was inactive: > 100 µM.
For `O=C(Nc1ccc(Cl)cc1)NS(=O)(=O)c1c(-c2ccccc2)oc2ccccc2c1=O`, the GI50 was inactive: > 100 µM.
With `COC(=O)/C(=N\NC(=S)NN)C(C(=O)C(=O)Nc1ccccc1C(N)=O)c1nc2ccccc2nc1O` (configuration not stated) the GI50 was inactive: > 100 µM.
For `N/C(CSCCSC/C(N)=N/O)=N\O`, the GI50 was inactive: > 100 µM.
In the case of `CC(=O)NC(CCCNC(=O)N(C)N=O)C(=O)NCc1ccccc1` (configuration not stated), the GI50 was inactive: > 100 µM.
With `CON(C)C(=O)C(C)N(Cc1ccccc1)Cc1ccccc1` (configuration not stated) the GI50 was inactive: > 100 µM.
For `O=c1oc2cc(O)ccc2cc1-c1nc2ccccc2o1`, the GI50 was inactive: 34.4 µM.
For `COc1cc2c3c(n(C)c(=O)c2cc1OC)-c1cc2c(cc1/C3=C\CCCCl)OCO2`, the GI50 was inactive: 40.6 µM.
In the case of `CN(C)CCCCC1CCN(CC(=O)N2c3ccccc3NC(=O)c3ccccc32)CC1`, the GI50 was inactive: > 10 µM.
In the case of `COc1ccc(-c2cc(O)c3cc(OC)c(OC)cc3n2)cc1OC`, the GI50 was inactive: > 100 µM.
In the case of `O=C1CC(c2cccc(Cl)c2)Oc2ccccc21` (configuration not stated), the GI50 was inactive: 33.9 µM.
With `C=C1CC(Cn2ccc(=O)[nH]c2=O)(c2ccc(-c3ccccc3)cc2)OC1=O` (configuration not stated) the GI50 was inactive: 13.3 µM.
`COc1cc2cc(C(=O)N3CC(CCl)c4ccc(O)cc43)[nH]c2c(OC)c1OC` (configuration not stated) was tested, and the GI50 was active: 0.0235 µM.
